29 compounds from the antibiotic and cytotoxicity screens of Wong et al. (2023) can be followed below.

Experiment [1] relates to HSkMC (human skeletal muscle cells). In words: cytotoxicity call (relative viability < 0.9). The conditions noted are these: 10 µM.
Experiment [2] concerns HepG2. In words: cytotoxicity call (relative viability < 0.9). The following applies: 10 µM.
Experiment [3] deals with S. aureus RN4220. In words: growth inhibition call (relative growth <= 0.2). The conditions noted are these: 50 µM.

SMILES strings stand for the structures. The list shows a part of the results.

As to `C[C@@H]1CN([C@@H](C)CO)C(=O)CCCn2nncc2CO[C@@H]1CN(C)S(=O)(=O)c1ccc(Oc2ccccc2)nc1`, the cytotoxicity call in experiment [1] and in experiment [2] was “inactive” throughout. Moreover, in experiment [3], the growth inhibition call is “inactive”.

For `O=C(C[C@H]1C=C[C@H](NC(=O)CN2CCOCC2)[C@H](CO)O1)NCc1cccc(F)c1`, the cytotoxicity call in experiment [1] and in experiment [2] was “inactive” in each case. In addition, the growth inhibition call in experiment [3] was “inactive”.

`CC(O)C(=O)O.CCOc1ccc2nc3cc(N)ccc3c(N)c2c1`: the cytotoxicity call in experiment [1] is “inactive”. In experiment [2], the cytotoxicity call is “active”. Also, the growth inhibition call in experiment [3] was “inactive”.

For the compound `CC(=N)NCc1cccc(CN)c1`, the cytotoxicity call in experiment [1] and in experiment [2] was “inactive” throughout. Further, the growth inhibition call in experiment [3] is “inactive”.

`Clc1ccc([C@@H](c2ccccc2Cl)C(Cl)Cl)cc1`: the cytotoxicity call in experiment [1] and in experiment [2] was “inactive” throughout. For the same compound, in experiment [3], the growth inhibition call is “inactive”.

As for `C[C@@H]1CN([C@H](C)CO)C(=O)Cc2cc(NC(=O)CCCCCC(=O)Nc3ccccc3N)ccc2O[C@H]1CN(C)S(C)(=O)=O`, the cytotoxicity call in experiment [1] and in experiment [2] was “inactive” each time. In addition, the growth inhibition call in experiment [3] was “inactive”.

With `C[C@@H]1CN([C@H](C)CO)C(=O)Cc2cc(NC(=O)Nc3cccc4ccccc34)ccc2O[C@H]1CN(C)S(=O)(=O)c1cccs1`, the cytotoxicity call in experiment [1] and in experiment [2] was “inactive” each time. The growth inhibition call in experiment [3] is “inactive”.

`C[C@H](CO)N1C[C@H](C)[C@@H](CN(C)C(=O)c2cnccn2)Oc2ncc(C#CCC3CCCC3)cc2C1=O`: the cytotoxicity call in experiment [1] and in experiment [2] was “inactive” each time. In experiment [3], the growth inhibition call is “inactive”.

As for `C[C@@H]1CCCCO[C@@H](CN(C)S(=O)(=O)c2ccc(Cl)cc2)[C@H](C)CN([C@H](C)CO)C(=O)c2cc(NC(=O)Nc3ccc4c(c3)OCO4)ccc2O1`, the cytotoxicity call in experiment [1] and in experiment [2] was “inactive” throughout. In experiment [3], the growth inhibition call is “inactive”.

Regarding `OC[C@@H](O)[C@@H](O[C@@H]1O[C@H](CO)[C@H](O)[C@H](O)[C@H]1O)[C@H](O)[C@@H](O)CO`, the cytotoxicity call in experiment [1] and in experiment [2] was “inactive” each time. Moreover, the growth inhibition call in experiment [3] is “inactive”.

Take `CCCC(=O)Nc1ccc2c(c1)OC[C@H](C)N(Cc1ccc(-c3ccccn3)cc1)C[C@@H](C)[C@@H](OC)CN(C)C2=O`: the cytotoxicity call in experiment [1] and in experiment [2] was “inactive” throughout. In addition, the growth inhibition call in experiment [3] was “inactive”.

As for `CC(C)NC(=O)N(C)C[C@@H]1Oc2ccc(NS(=O)(=O)c3ccccc3)cc2CC(=O)N([C@@H](C)CO)C[C@H]1C`, the cytotoxicity call in experiment [1] and in experiment [2] was “inactive” throughout. In addition, the growth inhibition call in experiment [3] is “inactive”.

Regarding `Cc1noc(C)c1NC(=O)N(C)C[C@@H]1Oc2ccc(NS(C)(=O)=O)cc2CC(=O)N([C@H](C)CO)C[C@H]1C`, the cytotoxicity call in experiment [1] and in experiment [2] was “inactive” in each case. Further, the growth inhibition call in experiment [3] was “inactive”.

Take `Cc1ccccc1NC(=O)C[C@H]1CC[C@H]2[C@@H](COc3ccc(NC(=O)c4ccc(Cl)cc4)cc3C(=O)N2C)O1`: the cytotoxicity call in experiment [1] and in experiment [2] was “inactive” throughout. Besides, in experiment [3], the growth inhibition call was “inactive”.

For the compound `COc1ccc(S(=O)(=O)N(C)C[C@@H]2Oc3ccc(NC(=O)CCCN(C)C)cc3C(=O)N([C@H](C)CO)C[C@@H]2C)cc1`, the cytotoxicity call in experiment [1] and in experiment [2] was “inactive” each time. Further, the growth inhibition call in experiment [3] was “inactive”.

For the compound `C[C@@H]1CN([C@@H](C)CO)C(=O)c2cc(NC(=O)CCC(F)(F)F)ccc2O[C@@H](C)CCCCO[C@H]1CN(C)C(=O)Nc1cccc2ccccc12`, the cytotoxicity call in experiment [1] was “active”. The cytotoxicity call in experiment [2] was “inactive”. Besides, the growth inhibition call in experiment [3] is “inactive”.

On to `C[C@@H]1CN([C@H](C)CO)S(=O)(=O)c2ccc(C#CC3(O)CCCC3)cc2O[C@H]1CN(C)C(=O)Cc1ccccc1`, for which the cytotoxicity call in experiment [1] and in experiment [2] was “inactive” throughout. Further, the growth inhibition call in experiment [3] was “inactive”.

Turning to `Cc1ccc2nc(SCc3c(C)c(C)cc(C)c3C)[nH]c2c1`, the cytotoxicity call in experiment [1] and in experiment [2] was “inactive” each time. In experiment [3], the growth inhibition call was “inactive”.

For `C[C@@H]1CN([C@@H](C)CO)C(=O)c2cc(NC(=O)Nc3ccc(C(F)(F)F)cc3)ccc2O[C@@H](C)CCCCO[C@@H]1CN(C)S(=O)(=O)c1ccc(F)cc1`, the cytotoxicity call in experiment [1] and in experiment [2] was “inactive” in each case. Besides, the growth inhibition call in experiment [3] was “inactive”.

Consider `COc1ccc(S(=O)(=O)Nc2cccc3c2O[C@@H](CN(C)S(C)(=O)=O)[C@@H](C)CN([C@H](C)CO)C3=O)cc1`, for which the cytotoxicity call in experiment [1] and in experiment [2] was “inactive” each time. The growth inhibition call in experiment [3] is “inactive”.

With `O=C(C[C@@H]1CC[C@H]2[C@@H](COC[C@@H](O)CN2C(=O)c2ccccc2F)O1)N1CCN(c2ccccc2)CC1`, the cytotoxicity call in experiment [1] and in experiment [2] was “inactive” each time. Further, in experiment [3], the growth inhibition call is “inactive”.

As to `COc1cc2c(cc1OC)CN(C(=O)[C@@H]1[C@H]3C(=O)O[C@H](c4ccccc4)[C@H](c4ccccc4)N3[C@H](c3ccc(OCCO)cc3)[C@@]13C(=O)Nc1ccc(C#CC4=CCCCC4)cc13)CC2`, the cytotoxicity call in experiment [1] and in experiment [2] was “inactive” throughout. Besides, in experiment [3], the growth inhibition call was “inactive”.

Regarding `COc1ccc(-c2cnc3c(c2)C(=O)N([C@H](C)CO)C[C@H](C)[C@@H](CN(C)C(=O)Cc2cccnc2)O3)cc1`, the cytotoxicity call in experiment [1] and in experiment [2] was “inactive” in each case. Moreover, the growth inhibition call in experiment [3] was “inactive”.

In the case of `CNC1CC(N)C(O)C(OC2OC(CO)C3OC4(OC(C(N)CO)C(O)C(O)C4O)OC3C2O)C1O` (configuration not stated), the cytotoxicity call in experiment [1] and in experiment [2] was “inactive” each time. In experiment [3], the growth inhibition call is “inactive”.

As for `C[C@@H]1CN([C@@H](C)CO)C(=O)Cc2cc(NC(=O)Nc3cccc4ccccc34)ccc2O[C@@H]1CN(C)Cc1ccc(C(=O)O)cc1`, the cytotoxicity call in experiment [1] and in experiment [2] was “inactive” in each case. In addition, in experiment [3], the growth inhibition call is “inactive”.

For the compound `N#C[C@@H]1N[C@@H](CO)[C@@H]1c1ccccc1`, the cytotoxicity call in experiment [1] and in experiment [2] was “inactive” each time. For the same compound, the growth inhibition call in experiment [3] was “inactive”.

As to `COc1ccc(S(=O)(=O)Nc2ccc3c(c2)C(=O)N([C@@H](C)CO)C[C@H](C)[C@@H](CN(C)C(=O)Nc2ccc(C(F)(F)F)cc2)OCCCC[C@@H](C)O3)cc1`, in experiment [1], the cytotoxicity call was “inactive”. The cytotoxicity call in experiment [2] is “active”. In addition, the growth inhibition call in experiment [3] is “inactive”.

With `NNS(=O)(=O)c1ccc(Oc2ccc(S(=O)(=O)NN)cc2)cc1`, the cytotoxicity call in experiment [1] was “inactive”. The cytotoxicity call in experiment [2] was “active”. Moreover, in experiment [3], the growth inhibition call is “inactive”.

Take `CO[C@H]1CN(C)C(=O)c2ccc(NC(=O)Nc3cccc(F)c3)cc2OC[C@H](C)N(C(=O)Nc2c(C)noc2C)C[C@H]1C`: the cytotoxicity call in experiment [1] and in experiment [2] was “inactive” in each case. In addition, the growth inhibition call in experiment [3] was “inactive”.
